Laboratory results as given in PubChem BioAssay AID504332 (National Center for Advancing Translational Sciences (NCATS), 2011).
“And” between values parts separate entries of the source, which are not always exact repeats. Equal values may be shown once. The whole screen tested about 350,000 compounds, of which about 31,000 (8.9%) were called active. Inconclusive means that the source gave no clear call. Such entries were picked first, then a sample of the others. Calls come from the whole dose curve; as a rule, active = well fitted inhibition curve with a large enough effect; inconclusive = small, poorly fitted or top-dose-only effect; inactive = no such curve, though single readings can be large or run the other way. A potency beside an inconclusive call is a rough fit, not a confirmed value.

Target: Histone-lysine N-methyltransferase EHMT2 (Homo sapiens) (UniProt Q96KQ7)
UniProt Q96KQ7, sequence (Q96KQ7 whole entry, looked up): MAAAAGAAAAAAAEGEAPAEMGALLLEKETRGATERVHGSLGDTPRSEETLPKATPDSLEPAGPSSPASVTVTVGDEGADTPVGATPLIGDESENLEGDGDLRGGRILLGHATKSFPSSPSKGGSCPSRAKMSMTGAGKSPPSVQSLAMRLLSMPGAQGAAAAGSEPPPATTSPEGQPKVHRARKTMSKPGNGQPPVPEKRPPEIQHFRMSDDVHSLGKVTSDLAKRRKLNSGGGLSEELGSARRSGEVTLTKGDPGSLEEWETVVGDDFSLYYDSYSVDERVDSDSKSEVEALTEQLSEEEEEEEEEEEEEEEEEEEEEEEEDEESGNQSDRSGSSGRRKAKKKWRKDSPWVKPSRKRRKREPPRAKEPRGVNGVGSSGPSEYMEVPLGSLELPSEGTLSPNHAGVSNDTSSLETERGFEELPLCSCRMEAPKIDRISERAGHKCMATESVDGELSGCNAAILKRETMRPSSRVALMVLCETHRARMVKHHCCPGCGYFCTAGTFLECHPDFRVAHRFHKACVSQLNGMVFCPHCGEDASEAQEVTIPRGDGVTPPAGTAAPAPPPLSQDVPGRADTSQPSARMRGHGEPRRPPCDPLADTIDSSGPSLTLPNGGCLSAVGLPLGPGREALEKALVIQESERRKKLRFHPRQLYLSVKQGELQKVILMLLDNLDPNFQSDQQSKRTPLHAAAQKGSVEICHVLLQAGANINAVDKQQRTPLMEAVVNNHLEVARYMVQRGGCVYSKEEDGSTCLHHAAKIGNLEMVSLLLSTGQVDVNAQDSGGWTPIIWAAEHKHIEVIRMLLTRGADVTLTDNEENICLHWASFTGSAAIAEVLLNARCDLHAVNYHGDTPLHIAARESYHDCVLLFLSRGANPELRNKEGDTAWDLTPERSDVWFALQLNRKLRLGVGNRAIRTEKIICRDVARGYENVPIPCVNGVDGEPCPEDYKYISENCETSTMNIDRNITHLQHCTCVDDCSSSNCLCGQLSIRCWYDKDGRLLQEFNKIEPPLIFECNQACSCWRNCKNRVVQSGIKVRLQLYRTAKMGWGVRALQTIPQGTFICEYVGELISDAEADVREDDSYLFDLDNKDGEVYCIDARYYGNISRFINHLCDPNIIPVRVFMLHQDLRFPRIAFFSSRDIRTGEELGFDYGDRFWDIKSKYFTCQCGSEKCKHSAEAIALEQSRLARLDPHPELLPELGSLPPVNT
Assay: qHTS Assay for Inhibitors of Histone Lysine Methyltransferase G9a; note: nearly all actives have a fitted effect of over 75% in size
Details: G9a H3K9 monomethylation, AlphaScreen, 2 h; activity, negative = inhibition: at 59 µM (top of the series) unless noted
Outline: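 Step 1: enzyme (final 20 nM) with compound, 15 min RT. Step 2: substrate peptide 500 nM and SAM 20 uM, 2 h RT. Step 3: anti-H3K9me1 antibody and AlphaScreen beads, 10 min, then plate read.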
% is set by controls: 0 for no effect and ±100 for the full control effect; potency is the fitted concentration of half-maximal effect; tags give direction and shape of the fitted curve.

Row | Compound | Potency | activity, negative = inhibition
1 | Cc1ccc(CNC(=O)C2CCN(S(=O)(=O)c3c(C)noc3/C=C/c3ccco3)CC2)cc1 | inconclusive: 39.8 µM [inhibitor, partial curve] | –
2 | CC(=O)c1c(C)n(C)c2ccc(O)cc12 | inconclusive: 28.2 µM [inhibitor, single point] | –
3 | CCOC(=O)C1(CC)CC(CSc2nc3ccccc3[nH]2)OC1=O (stereo not given) | – | inactive: -8.74% [at 12.7 µM]
4 | CCCCn1c(N)c(N(CCOC)C(=O)COC(=O)COc2cc(C)ccc2Cl)c(=O)[nH]c1=O | inconclusive: 50.1 µM [inhibitor, partial curve, poor fit] | –
5 | O=C(Nc1nncs1)c1cc2c(s1)CCC2 | inconclusive: 44.7 µM [inhibitor, partial curve, poor fit] | –
6 | Cc1csc(=O)n1CCC(=O)OCC(=O)c1ccc(Br)cc1 | inconclusive: 50.1 µM [inhibitor, partial curve] | –
7 | O=C(NCc1n[nH]c(=S)n1-c1ccc(Cl)c(Cl)c1)c1ccc(S(=O)(=O)N2CCCCC2)cc1 | active: 8.91 µM | –
8 | COc1ccc(NC(=O)CCSc2ccc(F)cc2)cc1 | inactive | –
9 | Cc1ccc(CNC(=O)C2CCCN2S(=O)(=O)c2ccc(Cl)cc2)cc1 (stereo not given) | inconclusive: 89.1 µM [inhibitor, single point] | –
10 | c1ccc(Cc2nnc3sc(-c4ccccn4)nn23)cc1 | – | inconclusive: -102% [inhibitor]
11 | CCCCn1c(-c2ccccc2)cnc1SCC(=O)NCCc1ccc(OC)c(OC)c1 | inconclusive: 31.6 µM [inhibitor, single point] | –
12 | CN(C(=O)CO/N=C/c1ccc(Cl)cc1)c1ccccc1 | inactive | –
13 | O=C(O)c1cc(NCc2ccccc2)ccc1N1CCOCC1 | inconclusive: 89.1 µM [inhibitor, single point] | –
14 | CCN(CC)C(=O)CSc1nnc(-c2ccccc2)n1N | inactive | –
15 | Cc1csc(NC(=O)/C=C/c2ccc(C)o2)n1 | inconclusive: 39.8 µM [inhibitor, single point] | –
16 | Cc1ccccc1C(=O)Nc1sc2c(c1C(=O)O)CCC2 | active: 50.1 µM | –
17 | CCOc1ccc(CNS(=O)(=O)c2ccc3c(c2)CC(=O)N3C)cc1 | inconclusive: 63.1 µM [inhibitor, single point] | –
18 | Cc1ccsc1/C=N/Nc1ccc(Cl)nn1 | inconclusive: 79.4 µM [inhibitor, single point] | –
19 | O=C1/C(=C/c2ccc(N3CCOCC3)o2)SC(=Nc2ccccc2)N1CCc1c[nH]c2ccccc12 | inconclusive: 0.631 µM [inhibitor, partial curve, poor fit] | –
20 | CCOC(=O)c1c(NC(=O)CSc2nnc(CNc3ccc(OC)cc3)n2C)sc(C)c1C | – | inconclusive: -85.6% [inhibitor]
21 | Cc1cc(C)cc(C(=O)NCCC(=O)N2CCC3(CC2)NCCc2[nH]cnc23)c1 | inconclusive: 63.1 µM [inhibitor, single point] | –
22 | CCOC(=O)Cn1nc(C)c(NC(=O)COc2ccc(F)cc2F)c1C | inactive | –
23 | O=C(Oc1c(-c2ccccc2)c(=O)n2c3c(cccc13)CC2)c1ccccc1 | inconclusive: 50.1 µM [inhibitor, partial curve] | –

Row | Compound | Potency | activity, negative = inhibition
24 | COc1ccc(/C=N/NC(=O)c2c(Br)cnn2C)c2ccccc12 | inactive | –
25 | Cc1cc(C(C)(C)C)cc(C)c1COC(=O)CN1C(=O)NC2(CCCC2)C1=O | – | inactive: 1.64% [at 12.7 µM]
26 | NC(=O)CC(NC(=S)NCc1ccccc1)C(=O)O (stereo not given) | active: 70.8 µM | –
27 | CC1(c2ccccc2)CC(C)(C)N2C(=O)C(=O)c3cccc1c32 (stereo not given) | inconclusive: 22.4 µM [inhibitor, single point] | –
28 | Cc1ccc(C(=O)NCCCNCCCN(C)C)cn1 | – | inconclusive: -106% [inhibitor]
29 | Oc1cccc(Nc2nc(N3CCOCC3)nc(N3CCOCC3)n2)c1 | inconclusive: 31.6 µM [inhibitor, single point] | –
30 | COc1ccc(/C(O)=C2\C(=O)C(=O)N(CCN(C)C)C2c2cccc(OC)c2OC)cc1Cl (stereo not given) | active: 44.7 µM | –
31 | O=C(Nc1ccc2ccccc2c1)c1ccc(Br)o1 | inconclusive: 50.1 µM [inhibitor, single point] | –
32 | Cc1ccc2nc(SCC(=O)NCc3ccco3)c(C)cc2c1 | inactive | –
33 | Cc1cc(SCC(=O)Nc2ccccc2)nc(C)n1 | inactive | –
34 | CC(=O)NNc1ncnc2ccccc12 | inconclusive: 25.1 µM [inhibitor, single point] | –
35 | Cc1nc([N+](=O)[O-])cn1CC(O)c1ccccc1 (stereo not given) | inconclusive: 89.1 µM [inhibitor, single point] | –
36 | O=C1CNCc2[nH]c3ccccc3c2N1c1ccccc1 | inconclusive: 35.5 µM [inhibitor, single point] | –
37 | Cn1c2cc(B(O)O)sc2c2cnn(Cc3c(F)cccc3F)c(=O)c21 | – | inactive: -1.69% [at 12.7 µM]
38 | O=C(CC(=O)Nc1ccccc1[N+](=O)[O-])Nc1ccccc1[N+](=O)[O-] | inactive | –
39 | Cc1ccc2nc(-c3ccc(NC(=O)CN4CCN(C(=O)c5ccco5)CC4)cc3)sc2c1 | inconclusive: 50.1 µM [inhibitor, partial curve] | –
40 | O=C(CCOc1ccccc1)N(Cc1cccnc1)c1nc2ccc(F)cc2s1 | inconclusive: 28.2 µM [inhibitor, partial curve, poor fit] | –
41 | CCOC(=O)c1c(NC(=O)c2ccc(OC)c(OC)c2)sc2c1CCCCC2 | active: 8.91 µM | –
42 | COc1ccc(Nc2nc(-c3c[nH]c4ccccc34)cs2)cc1 | inconclusive: 35.5 µM [inhibitor, single point] | –
43 | CS(=O)(=O)N1CCN(c2ccc(NC(=S)NC(=O)c3ccccc3[N+](=O)[O-])cc2)CC1 | inconclusive: 56.2 µM [inhibitor, partial curve, poor fit] | –
44 | CCN(CC)CCCN(c1ccccc1)C1Cc2ccccc2C1 | inconclusive: 2.51 µM [inhibitor, partial curve, poor fit] and inconclusive: 28.2 µM [inhibitor, single point] | –
45 | CCn1c(O)c(C=Nc2ccccc2)sc1=S | inconclusive: 44.7 µM [inhibitor, partial curve, poor fit] | –
